# In the supplement of paper PMC9446081:
# Among all 39,000 compounds or so, about 220 (0.56%) showed activity. The list shows a part of the results.
# Test system: Escherichia coli K-12 BW25113
# Test: relative growth (OD600 normalised to plate interquartile mean) (fraction); higher = less growth inhibition, active = 0.2 or less
# Conditions: 50 µM; LB; incubation time: overnight (16-24 h)
# 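Note: static incubation at 37 °C against the wild-type strain, values averaged over two biological replicates.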
row,SMILES,relative growth
1,O=C(C[C@H]1CC[C@@H]2[C@H](COC[C@H](O)CN2S(=O)(=O)c2ccc(Cl)cc2)O1)NCCN1CCCCC1,inactive: 0.993
2,COCC(=O)N(C)C[C@@H]1Oc2cc(-c3ccc(C#N)cc3)ccc2S(=O)(=O)N([C@H](C)CO)C[C@H]1C,inactive: 0.996
3,COc1ccc(S(=O)(=O)Nc2ccc3c(c2)C(=O)N([C@H](C)CO)C[C@H](C)[C@H](CN(C)C(=O)Nc2ccccc2)OCCCC[C@@H](C)O3)cc1,inactive: 0.996
4,C=C(C)COc1ccc([N+](=O)[O-])cc1,inactive: 0.983
5,CC(C)(C)[S@@+]([O-])N1Cc2cc(C(=O)NCc3ccc4c(c3)OCO4)nc(-c3ccc(-c4ccccc4)cc3)c2[C@H]1CCO,inactive: 1.04
6,CC(C)CC#Cc1ccc2c(c1)O[C@@H](CN(C)Cc1cncnc1)[C@H](C)CN([C@@H](C)CO)S2(=O)=O,inactive: 1.01
7,C[C@@H]1CCCCO[C@H](CN(C)C(=O)Nc2ccc3c(c2)OCO3)[C@H](C)CN([C@H](C)CO)C(=O)c2cc(NC(=O)Nc3ccc(F)cc3)ccc2O1,inactive: 1.02
8,C[C@H](CO)N1C[C@H](C)[C@@H](CN(C)C(=O)Cc2ccccc2)OCCCC[C@H](C)Oc2ccc(NC(=O)Nc3cccc4ccccc34)cc2C1=O,inactive: 1.04
9,COCCNC(=O)C[C@@H]1C[C@@H]2c3cc(NS(C)(=O)=O)ccc3O[C@@H]2[C@@H](CO)O1,inactive: 1.01
10,O=C(C[C@H]1CC[C@@H]2[C@H](COC[C@@H](O)CN2Cc2cc(F)ccc2F)O1)N[C@@H]1CCN(Cc2ccccc2)C1,inactive: 1
11,COc1ccc(CN(C)C[C@H]2OCCCC[C@@H](C)Oc3ccc(NC(=O)NC4CCCCC4)cc3C(=O)N([C@H](C)CO)C[C@H]2C)cc1,inactive: 1.01
12,CC=Cc1ccc2n(c1=O)C[C@H]1[C@H](CO)[C@@H](C(=O)NC3CCC3)[C@@H]2N1S(=O)(=O)c1cn(C)cn1,inactive: 1
13,C[C@@H]1CN([C@@H](C)CO)C(=O)c2cc(NC(=O)Nc3ccccc3)ccc2O[C@@H]1CN(C)Cc1ccc(Oc2ccccc2)cc1,inactive: 1.01
14,Cc1c(NC(=O)c2cccnc2)c(=O)n(-c2ccccc2)n1C,inactive: 1.02
15,CCCN(CCC)c1cc(N2CCCC2)c2ccccc2c1,inactive: 0.922
16,COCC#Cc1cnc2c(c1)C(=O)N([C@H](C)CO)C[C@H](C)[C@H](CN(C)C(=O)c1cnccn1)O2,inactive: 1.02
17,C[C@@H]1CN([C@H](C)CO)C(=O)c2cccc(NC(=O)c3ccc(-c4nccs4)cc3)c2O[C@H]1CN(C)C(=O)NC1CCCCC1,inactive: 0.992
18,C=CCOC(=O)[C@@H]1[C@H]2C(=O)O[C@H](c3ccccc3)[C@H](c3ccccc3)N2[C@H](c2ccc(OCCOC(=O)[C@@H]3C[C@@H]4C(=O)NCC(=O)N4[C@@H]3c3ccc(O)cc3)cc2)[C@@]12C(=O)Nc1ccc(I)cc12,inactive: 1.05
19,CN1C(=O)[C@H]2[C@H](C1=O)[C@H]1C=C(CCCO)[C@@H]2[C@H](c2ccc(CN3CCCC3)cc2)N1Cc1sc2ccccc2c1Cl,inactive: 0.976
20,C[C@@H]1CN([C@@H](C)CO)C(=O)c2cc(C3=CCCC3)cnc2O[C@H]1CN(C)C(=O)c1ccc2c(c1)OCO2,inactive: 0.988
21,CNC[C@H]1Oc2c(NS(=O)(=O)c3cn(C)cn3)cccc2C(=O)N([C@H](C)CO)C[C@@H]1C,inactive: 0.988

row,SMILES,relative growth
1,CCCC#Cc1ccc2c(c1)O[C@@H](CN(C)S(=O)(=O)c1cccc(OC)c1)[C@H](C)CN([C@H](C)CO)S2(=O)=O,inactive: 1.06
2,CNC(=O)c1cccc(CN)c1,inactive: 1.01
3,COc1ccc(S(=O)(=O)N[C@@H]2CC[C@H](CCNC(=O)CN3CCOCC3)O[C@H]2CO)cc1,inactive: 1.01
4,CC(C)NC(=O)N(C)C[C@H]1Oc2cc(C#Cc3ccccn3)ccc2S(=O)(=O)N([C@H](C)CO)C[C@H]1C,inactive: 1
5,C[C@@H]1CN([C@@H](C)CO)C(=O)c2cc(NS(=O)(=O)c3cccs3)ccc2O[C@@H]1CN(C)S(=O)(=O)c1ccccc1,inactive: 1
6,C[C@@H]1CN([C@@H](C)CO)C(=O)Cc2cc(NC(=O)NC3CCCCC3)ccc2O[C@@H]1CN(C)Cc1ccc(C(F)(F)F)cc1,inactive: 1.02
7,Cc1ccccc1/C=C(\CCC(=O)O)c1nc2ccccc2s1,inactive: 1.02
8,C[C@H]1CN([C@@H](C)CO)C(=O)c2cccc(NC(=O)Nc3ccc(F)cc3)c2O[C@H]1CN(C)Cc1ccc(C(=O)Nc2ccccc2N)cc1,inactive: 0.986
9,CO[C@@H]1CN(C)C(=O)c2ccc(NS(=O)(=O)CC(F)(F)F)cc2OC[C@H](C)N(Cc2cccnc2)C[C@H]1C,inactive: 0.987
10,C[C@H](CO)N1C[C@H](C)[C@@H](CN(C)C(=O)c2ccccc2)OCCCC[C@H](C)Oc2ccc(NS(=O)(=O)c3ccc(Cl)cc3)cc2C1=O,inactive: 1.01
11,O=C(C[C@@H]1CC[C@@H]2[C@H](COC[C@H](O)CN2C(=O)c2ccccc2F)O1)N1CCN(c2ccccc2)CC1,inactive: 0.932
12,C[C@@H]1CCCCO[C@@H](CN(C)CC2CCCCC2)[C@@H](C)CN([C@H](C)CO)C(=O)c2cc(NC(=O)c3ccccc3)ccc2O1,inactive: 0.979
13,C[C@H]1CCCCO[C@H](CN(C)C)[C@@H](C)CN([C@@H](C)CO)C(=O)c2cc(NC(=O)CCCN(C)C)ccc2O1,inactive: 0.991
14,O=C(O)[C@@H]1CC(=O)N(c2ccc3c(c2)OCO3)C1,inactive: 1.03
15,Cn1cc(CN2CCC(C(=O)N[C@@H](c3ccc(F)cc3)c3ccc4ccccc4n3)CC2)c2ccccc21,inactive: 0.963
16,O=C(C[C@H]1C=C[C@@H](NC(=O)CN2CCOCC2)[C@H](CO)O1)NCCc1ccccc1,inactive: 0.999
17,C[C@H](O)C#Cc1ccc2c(c1)O[C@H](CN(C)C(=O)c1ccncc1)[C@@H](C)CN([C@H](C)CO)S2(=O)=O,inactive: 0.999
18,Cc1ccc(S(=O)(=O)Nc2ccc3c(c2)C(=O)N([C@H](C)CO)C[C@@H](C)[C@@H](CN(C)Cc2ccc(C(=O)O)cc2)OCCCC[C@@H](C)O3)cc1,inactive: 0.993
19,Cc1cc(O)c(C=O)c(O)c1C(=O)O,inactive: 1.07
20,O=C1O[C@H](c2ccccc2)[C@H](c2ccccc2)N2[C@H]1[C@@H](C(=O)Nc1nc3ccccc3s1)[C@]1(C(=O)Nc3ccc(C#CCCO)cc31)[C@H]2c1ccc(O)cc1,inactive: 1.04
21,CC(C)NC(=O)N(C)C[C@H]1Oc2c(NC(=O)NC3CCCCC3)cccc2C(=O)N([C@H](C)CO)C[C@H]1C,inactive: 0.972

row,SMILES,relative growth
1,Cc1ccc(S(=O)(=O)N(C)C[C@H]2Oc3ccc(NC(=O)C4CC4)cc3CC(=O)N([C@@H](C)CO)C[C@@H]2C)cc1,inactive: 0.998
2,Cc1ccc(S(=O)(=O)Nc2cccc3c2O[C@H](CN(C)C(=O)NC(C)C)[C@@H](C)CN([C@@H](C)CO)C3=O)cc1,inactive: 0.998
3,CCN(CC)S(=O)(=O)c1ccc(CN2C(=O)[C@]3(CC(=O)N(CCOC)C3=O)c3cc(F)ccc32)cc1,inactive: 1
4,COc1ccccc1S(=O)(=O)N(C)C[C@H]1Oc2ncc(Br)cc2C(=O)N([C@@H](C)CO)C[C@H]1C,inactive: 0.973
5,COc1ccc(NC(=O)N(C)C[C@@H]2Oc3c(NC(=O)C4CC4)cccc3C(=O)N([C@H](C)CO)C[C@H]2C)cc1,inactive: 0.981
6,CCCCOc1ccc(C(=O)C2=C(O)C(=O)N(Cc3cccnc3)[C@H]2c2ccc(O)c(OCC)c2)c(C)c1,inactive: 1
7,CCNC(=O)C[C@H]1CC[C@H]2[C@@H](COC[C@H](O)CN2C(=O)Nc2c(C)noc2C)O1,inactive: 0.999
8,CCCN(C)C[C@@H]1OCCCC[C@H](C)Oc2ccc(NC(=O)NC3CCCCC3)cc2C(=O)N([C@@H](C)CO)C[C@@H]1C,inactive: 1.01
9,CC=Cc1ccc(OC)cc1,inactive: 1.09
10,CN(C)C(=O)C[n+]1ccc(/C=N/O)cc1,inactive: 1.04
11,C[C@H](CO)N1C[C@H](C)[C@@H](CN(C)Cc2ccc(Cl)c(Cl)c2)OCCCC[C@H](C)Oc2ccc(NC(=O)Cc3ccccc3)cc2C1=O,inactive: 0.931
12,CC(C)(C)S(=O)N1Cc2cc(C(=O)N[C@@H]3CCN(Cc4ccccc4)C3)nc(-c3cccc(-c4cccc(F)c4)c3)c2[C@@H]1CCO (stereo partly specified),inactive: 1.01
13,Nc1ncnc2c([C@@H]3N[C@H](CO)[C@@H](O)[C@H]3O)c[nH]c12,inactive: 0.999
14,C[C@@H]1CN([C@H](C)CO)C(=O)c2cc(C#CCN(C)C)cnc2O[C@@H]1CN(C)Cc1ccc2c(c1)OCO2,inactive: 0.967
15,COc1ccccc1-c1cccc(-c2nc(C(=O)N3CCCCC3)cc3c2[C@@H](CCO)N([S@](=O)C(C)(C)C)C3)c1,inactive: 1.01
16,COc1ccc(NC(=O)N(C)C[C@H]2OCCCC[C@@H](C)Oc3ccc(NC(=O)Cc4ccccc4)cc3C(=O)N([C@@H](C)CO)C[C@@H]2C)cc1,inactive: 1.03
17,COc1ccc(CN(C)C[C@@H]2OCCCC[C@H](C)Oc3ccc(NS(=O)(=O)c4ccc(C)cc4)cc3C(=O)N([C@@H](C)CO)C[C@H]2C)cc1,inactive: 0.995
18,COCC(=O)Nc1ccc2c(c1)OC[C@@H](C)N(Cc1cccc(F)c1)C[C@H](C)[C@H](OC)CN(C)C2=O,inactive: 1.01
19,COc1ccc(CN(C)C[C@H]2Oc3c(NC(=O)c4cnccn4)cccc3C(=O)N([C@@H](C)CO)C[C@@H]2C)cc1,inactive: 0.94
